Experimental data as given in PubChem BioAssay (Tox21).
“And” between values parts separate entries of the source, which are not always exact repeats. Equal values may be shown once. The inconclusive results got no clear call from the source; some entries with a clear call stand among them for comparison. For some assays here: Potencies of inconclusive entries are doubtful fits and often do not repeat. Some compounds were tested as several samples or in several runs, with calls that do not always agree. The source made the active and inactive calls. Unless noted, calls follow the shape of the dose curve; as a rule, active = well fitted curve in the direction sought with a large enough effect in the repeat runs; inconclusive = weak or mixed curves; inactive = no such curve, though single readings can be large; an effect the other way counts as inactive or inconclusive.

Columns and labels:
[1] = qHTS RealTime-Glo MT Cell Viability Assay in HepG2 cells - 16 hour (AID 1224885); also: nearly all actives have a fitted effect of over 50% in size
Method in brief: (§1)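 HepG2 cells (600/well) were dispensed with RealTime-Glo reagents, incubated 5 h at 37 °C, then treated with compounds in DMSO for up to 40 h. Nonlytic NanoLuc luminescence reflecting viable cells was read at each stated time point.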

[2] = qHTS RealTime-Glo MT Cell Viability Assay in HEK293 cells - 24 hour (AID 1224886); also: nearly all actives have a fitted effect of over 50% in size
Method in brief: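 HEK293 cells seeded with NanoLuc/prosubstrate reagent, rested 5 h at 37 C, then dosed and kept at 37 C up to 40 h. Nonlytic real-time luminescence from viable cells read at 0, 8, 16, 24, 32 and 40 h.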

[3] = qHTS RealTime-Glo MT Cell Viability Assay in HEK293 cells - 8 hour (AID 1224887); also: nearly all actives have a fitted effect of over 50% in size
Method in brief: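 Measured as luminescence from the same continuously cultured HEK293 wells at successive time points (0, 8, 16, 24, 32, 40 h) after compound addition. Reagent present from seeding; dosing at 5 h; incubation 37 C.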

[4] = A CellTox Green Cytotoxicity Assay to monitor cytotoxicity in HEK293 cells - 16 hour (AID 1224888); also: nearly all actives have a fitted effect of over 35% in size
Method in brief: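 Homogeneous no-lysis format: HEK293 cell suspension mixed with CellTox Green reagent, seeded, incubated 5 h at 37 C/5% CO2, then dosed by pintool with compound in DMSO.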

[5] = qHTS RealTime-Glo MT Cell Viability Assay in HepG2 cells - 0 hour (AID 1224889); also: nearly all actives have a fitted effect of over 50% in size
Method in brief: as §1

[6] = A CellTox Green Cytotoxicity Assay to monitor cytotoxicity in HepG2 cells - 8 hour (AID 1224890); also: nearly all actives have a fitted effect of over 45% in size
Method in brief: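 Fluorescent DNA-binding dye, 600 HepG2 cells/well, 5 h preincubation then compound in DMSO; same plates read at 0–40 h, 37 C.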

[7] = qHTS assay to identify small molecule antagonists of the androgen receptor (AR) signaling pathway using the MDA cell line in the presence of 0.5 nM R1881 - cell viability counter screen (AID 1259242); also: nearly all actives have a fitted effect of over 45% in size
Method in brief: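 Human breast carcinoma MDA-kb2 cells, cultured without CO2, receive compounds alongside 0.5 nM (final) R1881 agonist. After 16 hr at 37C, viability is taken as live-cell protease signal.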

[8] = qHTS assay to identify small molecule phospholipidosis (PLD) inducers (AID 1259344; active = well fitted curve in the direction sought with a large enough effect; inconclusive = small, poorly fitted or top-dose-only effect, or another doubt; inactive = no such curve, though single readings can be large; an effect the other way counts as inactive or inconclusive)
Method in brief: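 Cells (HepG2, 900 per well) attach for 4 h, receive LipidTOX Red and compound together, incubate 24 h at 37 C, are fixed 30 min with paraformaldehyde/Hoechst, then imaged at one site per well.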

[9] = qHTS assay to identify small molecule antagonists of the sonic hedgehog signaling (Shh) pathway - cell viability counter screen (AID 1259367); also: nearly all actives have a fitted effect of over 55% in size
Method in brief: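 Cytotoxicity was assessed in parallel with Shh reporter activity by measuring live-cell protease fluorescence (CellTiter-Fluor) in NIH/3T3 cells stably carrying Gli1-Luc, treated with compound under conditioned medium stimulation for 23 hr plus 1 hr reagent incubation.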

[10] = target: Estrogen receptor beta (Homo sapiens) (UniProt Q92731); test: qHTS assay to identify small molecule agonists of the estrogen receptor beta (ER-beta) signaling pathway (AID 1259377; active = well fitted activation curve with a large enough effect in the signal ratio in the repeat runs, not every such curve was filed as active; inconclusive = weak or mixed curves, or effect the other way; the % refers to the signal ratio); settings: ER-beta-UAS-bla HEK293T, beta-lactamase FRET ratio, 16 h; series mostly up to 92.4 µM
Method in brief: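 Measured by fluorescence intensity from a B/G FRET beta-lactamase substrate (2 h, room temperature) in ER-beta-UAS-bla HEK293T cells treated with DMSO-dissolved compounds for 16 hr at 37C and 5% CO2.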

[11] = target: Estrogen receptor beta (Homo sapiens) (UniProt Q92731); test: qHTS assay to identify small molecule antagonists of the estrogen receptor beta (ER-beta) signaling pathway (AID 1259378; active = well fitted inhibition curve with a large enough effect in the signal ratio in the repeat runs, not every such curve was filed as active; inconclusive = weak or mixed curves, or effect the other way; inactive = no such curve, though single readings can be large or run the other way; the % refers to the signal ratio); settings: ER-beta-UAS-bla HEK293T, beta-lactamase FRET ratio, 16 h; series mostly up to 92.4 µM
Method in brief: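 ER-beta-UAS-bla HEK293T (GripTite) cells in 2% charcoal-stripped FBS medium were preincubated 6 hr at 37C, dosed with compound, then stimulated with 1 nM E2 (final) for 16 hr; beta-lactamase reporter read by B/G FRET fluorescence after 2 hr substrate loading.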

[12] = qHTS assay to identify small molecule agonists of the androgen receptor (AR) signaling pathway in the presence of an antagonist - cell viability counter screen (AID 1259379); also: nearly all actives have a fitted effect of over 25% in size
Method in brief: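 Counter screen for cell viability run in parallel with the AR agonist-mode luciferase assay. MDA-kb2 cells were co-treated with nilutamide (3.0uM final) and compounds, then incubated 16 hr at 37C, and CellTiter-Fluor fluorescence was measured.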

[13] = qHTS assay to identify small molecule antagonists of the estrogen receptor alpha (ER-alpha) signaling pathway using the BG1 cell line in the presence of 0.1 nM 17-beta-estradiol - cell viability counter screen (AID 1259241); also: nearly all actives have a fitted effect of over 40% in size
Method in brief: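 Viability in VM7Luc4E2 cells after 22 hr compound exposure under 0.1 nM 17beta-estradiol stimulation, by CellTiter-Fluor.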

[14] = target: Androgen receptor (Homo sapiens) (UniProt P10275); test: qHTS assay to identify small molecule antagonists of the androgen receptor (AR) signaling pathway using the MDA cell line in the presence of 0.5 nM R1881 (AID 1259243); also: nearly all actives have a fitted effect of over 50% in size
Method in brief: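 Cells: MDA-kb2 (MMTV-luc). Stimulus: 0.5 nM R1881. Time: 16 hr, 37C, no CO2. Detection: ONE-Glo luminescence after 30 min at RT.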

[15] = qHTS assay to identify small molecule HDAC inhibitors - cell viability counter screen (AID 1259365); also: nearly all actives have a fitted effect of over 50% in size
Method in brief: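 Cytotoxicity was gauged in wild-type HCT-116 cells after a brief 2hr treatment with DMSO-dissolved compounds at 37C and 5% CO2, using CellTiter-Glo luminescence developed for 30min at room temperature.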

[16] = qHTS assay to identify small molecule agonists of the sonic hedgehog signaling (Shh) pathway - cell viability counter screen (AID 1259366); also: nearly all actives have a fitted effect of over 50% in size
Method in brief: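 Stable Gli1-Luc NIH/3T3 clone, 2,000 cells/well. Compound exposure 24hr at 37C. Read-out: CellTiter-Fluor fluorescence.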

[17] = qHTS assay to identify small molecule antagonists of the sonic hedgehog signaling (Shh) pathway (AID 1259369; calls by dose curve; also: nearly all actives have a fitted effect of over 45% in size)
Method in brief: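 Gli1 transcriptional reporter (firefly Luc) in NIH/3T3 background, conditioned-medium activated. 24hr exposure, luminescence endpoint.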

[18] = qHTS assay to identify small molecule HDAC inhibitors (AID 1259364);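 also: wild-type HCT-116 cells with endogenous class I/II HDAC activity; nearly all actives have a fitted effect of over 45% in size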
Method in brief: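 After a 2 hr compound incubation (37C, 5% CO2), HCT-116 cells seeded at 1,500/well the day before received HDAC-Glo reagent; signal read as luminescence after 30 min at room temperature.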

Measured: Potency
Potency is read from the fitted curve at half-maximal effect; tags tell the direction and shape of the fitted curve or compound fluorescence and quenching.

Chain of UniProt Q92731 (Q92731 whole entry, looked up): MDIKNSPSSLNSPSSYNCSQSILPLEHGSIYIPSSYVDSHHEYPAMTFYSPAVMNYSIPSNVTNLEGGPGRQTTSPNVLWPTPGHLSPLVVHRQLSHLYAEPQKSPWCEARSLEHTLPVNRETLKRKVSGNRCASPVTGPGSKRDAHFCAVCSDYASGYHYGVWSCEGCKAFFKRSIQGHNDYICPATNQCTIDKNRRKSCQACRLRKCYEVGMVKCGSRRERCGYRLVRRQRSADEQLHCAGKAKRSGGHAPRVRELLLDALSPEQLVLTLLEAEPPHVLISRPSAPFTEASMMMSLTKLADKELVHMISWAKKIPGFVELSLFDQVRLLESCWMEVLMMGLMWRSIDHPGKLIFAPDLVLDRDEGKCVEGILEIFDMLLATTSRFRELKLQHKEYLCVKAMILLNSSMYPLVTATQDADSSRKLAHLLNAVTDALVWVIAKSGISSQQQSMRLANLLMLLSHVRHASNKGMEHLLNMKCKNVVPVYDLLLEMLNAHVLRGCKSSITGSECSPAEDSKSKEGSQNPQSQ
Chain of UniProt P10275 (P10275 whole entry, looked up): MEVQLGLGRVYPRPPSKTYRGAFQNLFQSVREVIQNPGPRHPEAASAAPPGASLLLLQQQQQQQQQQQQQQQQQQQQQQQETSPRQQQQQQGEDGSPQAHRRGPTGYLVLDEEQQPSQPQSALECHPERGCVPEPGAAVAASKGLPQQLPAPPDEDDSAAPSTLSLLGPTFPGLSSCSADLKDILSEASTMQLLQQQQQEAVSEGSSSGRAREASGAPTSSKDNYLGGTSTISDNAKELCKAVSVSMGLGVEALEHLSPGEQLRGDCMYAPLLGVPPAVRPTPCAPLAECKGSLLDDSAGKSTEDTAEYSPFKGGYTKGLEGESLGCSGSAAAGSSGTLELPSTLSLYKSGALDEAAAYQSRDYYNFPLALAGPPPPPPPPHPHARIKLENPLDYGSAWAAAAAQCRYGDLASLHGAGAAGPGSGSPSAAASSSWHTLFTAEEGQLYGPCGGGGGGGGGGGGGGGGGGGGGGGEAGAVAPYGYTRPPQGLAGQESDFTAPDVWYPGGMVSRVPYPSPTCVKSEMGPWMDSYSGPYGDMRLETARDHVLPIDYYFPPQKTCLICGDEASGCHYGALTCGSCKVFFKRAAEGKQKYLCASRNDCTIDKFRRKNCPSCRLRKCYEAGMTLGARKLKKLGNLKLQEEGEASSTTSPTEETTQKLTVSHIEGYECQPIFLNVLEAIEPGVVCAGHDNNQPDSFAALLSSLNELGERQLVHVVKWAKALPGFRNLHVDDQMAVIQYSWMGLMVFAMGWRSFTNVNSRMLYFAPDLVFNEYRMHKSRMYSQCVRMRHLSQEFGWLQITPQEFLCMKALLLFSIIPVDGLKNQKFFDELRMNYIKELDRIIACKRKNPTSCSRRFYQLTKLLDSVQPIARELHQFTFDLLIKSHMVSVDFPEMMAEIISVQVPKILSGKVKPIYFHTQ

c1ccc2c(c1)Sc1ccccc1N2CC1CN2CCC1CC2 (stereo not drawn)
inconclusive: [2] 26.8 µM [cytotoxic, single point] | [3] 26.8 µM [cytotoxic, single point] | [4] 26.8 µM [activator, single point] | [5] 16.9 µM [rising, partial curve] | [6] 26.8 µM [activator, single point] | [10] 29.8 µM [rising, single point] | [11] 26.6 µM [partial curve] | [12] 29.8 µM [cytotoxic, partial curve]
active: [1] 23.9 µM | [7] 29.8 µM | [8] 3.55 µM | [9] 11.9 µM

CC1(C)C(C=C(Cl)Cl)C1C(=O)OC(C#N)c1ccc(F)c(Oc2ccccc2)c1 (stereo not drawn)
inconclusive: [1] 38.9 µM [cytotoxic, partial curve, poor fit]

Oc1ccc(Cl)cc1Cc1ccccc1
active: [3] 21.9 µM and 26.3 µM and 21.3 µM | [6] 31.3 µM
inconclusive: [1] 43.6 µM [cytotoxic, partial curve] | [2] 23.9 µM [cytotoxic, partial curve] | [4] 9.77 µM [activator, full curve, poor fit] and 8.81 µM [activator, full curve, poor fit] and 23.9 µM [activator, partial curve, poor fit] | [5] 34.7 µM [cytotoxic, partial curve] and 55.6 µM [cytotoxic, partial curve] | [13] 15.5 µM [cytotoxic, partial curve, poor fit] | [14] 0.0376 µM [inhibitor, full curve, poor fit] | [15] 61.9 µM [cytotoxic, partial curve, poor fit] | [16] 27.3 µM [cytotoxic, partial curve] | [9] 19.3 µM [cytotoxic, partial curve] and 27.6 µM [cytotoxic] | [17] 23.7 µM [inhibitor, partial curve] | [10] 13.7 µM [fluorescent, full curve] and 13.9 µM [fluorescent] and 13.3 µM [fluorescent, single point] | [12] 69.4 µM [cytotoxic]

C=CCC1=C(C)[C@@H](OC(=O)[C@@H]2[C@@H](C=C(C)C)C2(C)C)CC1=O
active: [2] 12.3 µM | [3] 6.92 µM
inconclusive: [1] 34.7 µM [cytotoxic, partial curve, poor fit] | [13] 61.1 µM [cytotoxic, partial curve] | [16] 68.6 µM [cytotoxic, single point] | [9] 68.6 µM [cytotoxic, single point]

ClC1=C(Cl)[C@]2(Cl)[C@H]3[C@H]([C@@H]4C=C[C@H]3C4)[C@@]1(Cl)C2(Cl)Cl
inconclusive: [1] 54.9 µM [cytotoxic, single point] | [7] 68.5 µM [cytotoxic, single point]
active: [2] 43.6 µM | [4] 54.9 µM and 49 µM

CC(O)C(=O)[O][Hg][c]1ccccc1 (stereo not drawn)
active: [1] 2.19 µM | [2] 0.977 µM | [3] 1.55 µM | [6] 2.75 µM | [7] 6.11 µM | [18] 4.33 µM | [15] 4.33 µM | [16] 0.969 µM | [17] 0.0306 µM | [12] 6.86 µM

CCOP(=S)(OCC)SCn1nnc2ccccc2c1=O
inconclusive: [1] 43.6 µM [cytotoxic, partial curve, poor fit] | [13] 61.1 µM [cytotoxic, partial curve, poor fit] | [17] 27.3 µM [inhibitor, partial curve] | [12] 48.6 µM [cytotoxic, partial curve]
active: [3] 21.9 µM | [5] 24.5 µM
